This note sets out measurements from US20260234254A1 (APTEVO RESEARCH AND DEVELOPMENT, published 2026).

The Kd is the free concentration of one partner at which half of the binding sites on the other are occupied at equilibrium, for simple one-to-one binding. Usually koff stands for the first-order rate constant of dissociation. What is called kon is the rate constant with which the complex forms.

In this test the target is T1, recombinant monomeric CD123 ectodomain (ECD) with an affinity tag on the C-terminus (UniProt P26951 19-305).
T1 construct: extracellular domain; also called CD123 ECD; extracellular domain of CD123
T1 sequence (looked up): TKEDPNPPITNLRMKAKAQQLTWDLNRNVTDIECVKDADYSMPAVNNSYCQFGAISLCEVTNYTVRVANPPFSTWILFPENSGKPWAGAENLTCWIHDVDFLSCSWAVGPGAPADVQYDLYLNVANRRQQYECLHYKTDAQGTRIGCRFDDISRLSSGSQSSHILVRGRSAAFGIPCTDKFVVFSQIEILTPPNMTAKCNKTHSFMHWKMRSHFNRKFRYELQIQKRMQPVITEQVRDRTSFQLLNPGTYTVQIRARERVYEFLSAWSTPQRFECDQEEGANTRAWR
As to the kind of experiment: SPR (Biacore T200), bispecific captured by anti-human Fc F(ab')2, CD123 ECD 3-48 nM as analyte, 25 °C, 1:1 model. A general note: In SPR one partner is held on a chip, and binding of the other changes the refractive index at the surface.

B1: OMT1 VLVH x TSC456 scFv-Fc-scFv TRI130 (bispecific antibody)
chain: [about 100 residues skipped]TFGGGTKVEIKGGGGSGGGGSGGGGSGGGGSEVQLLESGGGLVQPGGSLRLSCAASGFTFSSYGMSWVRQAPGKGLEGVSAISGSGGSTYYADSVKGRFTISRDNSKNTLYLQMNSLRAEDTAVYYCAKEKLRYFDWLSDAFDIWGQGTMVTVSSSEPKSSDKTHTCPPCPAPEAAGAPSVFLFPPKPKDTLMISRTPEVTCVVVDVSHEDPEVKFNWYVDGVEVHNAKTKPREEQYNSTYRVVSVLTVLHQDWLNGKEYKCAVSNKALPAPIEKTISKAKGQPREPQVYTLPPSRDELTKNQVSLTCLVKGFYPSDIAVEWESNGQPENNYKTTPPVLDSDGSFFLYSKLTVDKSRWQQGNVFSCSVMHEALHNHYTQKSLSLSPGSGGGGSGGGGSGGGGSPSQVQLVQSGPEVKKPGSSVKVSCKASGYTFSRSTMHWVRQAPGQGLEWIGYINPSSAYTNYNQKFKDRVTITADKSTSTAYMELSSLRSEDTAVYYCARPQVHYDYNGFPYWGQGTLVTVSSGGGGSGGGGSGGGGSGGGGSDIQMTQSPSTLSASVGDRVTMTCSASSSVSYMNWYQQKPGKAPKRWIYDSSKLASGVPSRFSGSGSGTDYTLTISSLQPDDFATYYCQQWSRNPPTFGGGTKVEIKRS
notes: Single-chain scFv-Fc-scFv, anti-CD123 (OMT1, VL-VH) x anti-CD3ε (TSC456)
In the case of B1, the Kd came out at 2.7 nM, the koff was found to be 0.000472 s⁻¹ and the kon turned out to be 172000 M⁻¹ s⁻¹.
